Experimental data published in PMC7663100.
Results are given in words; binding and its absence hold for the method and conditions named. For some assays here: In cells and extracts the contact can be indirect. Some binding calls cover weakened binding; strength is not graded here. For some assays here: Tags and fused reporters may be left off the sequences shown. Values belong to the molecule of their own block, whether it stands above or below them.

Amino acid sequences for entries named in this document (tags omitted). A change or cut given only in a name is not applied to a line headed by its entry.
UniProt Q14145: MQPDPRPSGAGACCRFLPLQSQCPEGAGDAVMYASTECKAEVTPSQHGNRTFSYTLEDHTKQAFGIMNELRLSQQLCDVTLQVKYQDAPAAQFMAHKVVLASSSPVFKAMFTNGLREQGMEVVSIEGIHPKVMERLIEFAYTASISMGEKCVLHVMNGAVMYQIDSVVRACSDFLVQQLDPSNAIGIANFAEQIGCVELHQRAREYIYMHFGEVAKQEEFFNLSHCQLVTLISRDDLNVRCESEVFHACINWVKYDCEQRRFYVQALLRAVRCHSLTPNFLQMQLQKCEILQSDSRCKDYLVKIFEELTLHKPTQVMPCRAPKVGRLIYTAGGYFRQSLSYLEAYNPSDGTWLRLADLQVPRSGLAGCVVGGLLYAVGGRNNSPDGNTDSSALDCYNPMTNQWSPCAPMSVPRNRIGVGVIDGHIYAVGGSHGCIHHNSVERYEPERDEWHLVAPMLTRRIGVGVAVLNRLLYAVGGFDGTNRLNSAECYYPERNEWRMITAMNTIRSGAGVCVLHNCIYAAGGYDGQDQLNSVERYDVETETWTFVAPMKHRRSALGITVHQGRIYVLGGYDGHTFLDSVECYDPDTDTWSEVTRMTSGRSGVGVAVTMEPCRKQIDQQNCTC

Tests used:
[1] = molecular target: T1, MINERVA^FL (full length human MINERVA, residues Met1–Phe746), recombinant with N-terminal His6-tag (human) (UniProt Q96TA1); experiment: SPR; Biacore T200; MINERVA^FL amine-coupled on CM5 chip; Keap1^321–609 injected at 78.1–10,000 nM, 30 μL/min; 10 mM HEPES, 150 mM NaCl, pH 7.4; 1:1 binding model and steady state affinity model; both purified
T1 sequence: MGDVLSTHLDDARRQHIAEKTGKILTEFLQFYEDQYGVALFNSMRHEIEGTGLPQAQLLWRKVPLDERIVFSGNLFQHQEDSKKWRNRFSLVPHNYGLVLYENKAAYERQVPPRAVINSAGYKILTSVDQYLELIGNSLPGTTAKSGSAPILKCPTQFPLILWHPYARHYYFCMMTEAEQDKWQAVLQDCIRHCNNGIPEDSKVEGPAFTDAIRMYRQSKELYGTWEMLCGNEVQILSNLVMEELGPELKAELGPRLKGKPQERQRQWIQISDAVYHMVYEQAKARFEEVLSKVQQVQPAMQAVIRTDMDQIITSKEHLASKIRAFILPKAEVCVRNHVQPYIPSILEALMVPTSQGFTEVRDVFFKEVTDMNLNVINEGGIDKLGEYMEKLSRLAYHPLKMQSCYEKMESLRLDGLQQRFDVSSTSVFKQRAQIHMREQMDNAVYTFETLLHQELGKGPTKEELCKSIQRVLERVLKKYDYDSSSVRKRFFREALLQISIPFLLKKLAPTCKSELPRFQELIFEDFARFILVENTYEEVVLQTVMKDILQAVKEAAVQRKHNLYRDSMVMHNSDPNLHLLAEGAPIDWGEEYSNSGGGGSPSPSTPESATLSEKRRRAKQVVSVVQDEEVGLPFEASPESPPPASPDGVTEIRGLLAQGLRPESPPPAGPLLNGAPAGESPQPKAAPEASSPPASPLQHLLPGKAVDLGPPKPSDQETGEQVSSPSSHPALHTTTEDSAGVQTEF

HA-tagged Keap1 = HA-tagged Keap1 (UniProt Q14145); experiment: co-IP; HA-Keap1 and FLAG-MINERVA constructs co-expressed in HEK293T; lysis in 1% NP-40, 20 mM Tris-HCl (pH 7.5), 150 mM NaCl; HA-Keap1 immunoprecipitated with anti-HA and protein A beads, western blot
[2] = molecular target: T2, C-terminal trypsin fragment of MINERVA^ΔC (approximately 50 kDa, beginning at Ser146) (human) (UniProt Q96TA1); experiment: SEC; trypsin-digested MINERVA^ΔC (5000:1 trypsin ratio, 4 °C, 20 h) on HiLoad 16/600 Superdex200 pg, 20 mM Tris-HCl (pH 8.0), 200 mM NaCl; fractions on SDS-PAGE; both purified
T2 sequence: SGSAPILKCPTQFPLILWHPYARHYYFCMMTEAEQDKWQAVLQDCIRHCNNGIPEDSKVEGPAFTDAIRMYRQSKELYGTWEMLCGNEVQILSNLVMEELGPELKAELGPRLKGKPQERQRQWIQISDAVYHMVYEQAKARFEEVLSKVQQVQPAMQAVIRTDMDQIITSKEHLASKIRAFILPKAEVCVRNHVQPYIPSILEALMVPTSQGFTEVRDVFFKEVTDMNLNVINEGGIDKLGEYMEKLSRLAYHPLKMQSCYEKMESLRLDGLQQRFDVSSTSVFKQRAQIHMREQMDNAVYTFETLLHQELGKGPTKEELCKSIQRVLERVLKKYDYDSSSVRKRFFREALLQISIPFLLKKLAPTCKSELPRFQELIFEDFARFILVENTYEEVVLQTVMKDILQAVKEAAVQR

[3] = molecular target: MINERVA^ΔC (C-terminally truncated human MINERVA, residues Met1–Ser574), recombinant with C-terminal His6-tag (human) (UniProt Q96TA1); experiment: SEC-MALS; Superdex 200 Increase 10/300 GL, 20 mM Tris-HCl (pH 8.0), 200 mM NaCl; 2 mg protein injected, 0.5 mL/min; both purified

Molecule: Keap1^321–609 (N- and C-terminally truncated Keap1, residues Ala321–Thr609, containing the Kelch domain) (from UniProt Q14145 321-609) (domain or fragment)
binding [1]: binds

B1: FLAG-tagged MINERVA^ΔN (residues Thr307–Phe746) (domain or fragment, UniProt Q96TA1 307-746)
chain: TDMDQIITSKEHLASKIRAFILPKAEVCVRNHVQPYIPSILEALMVPTSQGFTEVRDVFFKEVTDMNLNVINEGGIDKLGEYMEKLSRLAYHPLKMQSCYEKMESLRLDGLQQRFDVSSTSVFKQRAQIHMREQMDNAVYTFETLLHQELGKGPTKEELCKSIQRVLERVLKKYDYDSSSVRKRFFREALLQISIPFLLKKLAPTCKSELPRFQELIFEDFARFILVENTYEEVVLQTVMKDILQAVKEAAVQRKHNLYRDSMVMHNSDPNLHLLAEGAPIDWGEEYSNSGGGGSPSPSTPESATLSEKRRRAKQVVSVVQDEEVGLPFEASPESPPPASPDGVTEIRGLLAQGLRPESPPPAGPLLNGAPAGESPQPKAAPEASSPPASPLQHLLPGKAVDLGPPKPSDQETGEQVSSPSSHPALHTTTEDSAGVQTEF
binding (HA-tagged Keap1): binds

B3: FLAG-tagged MINERVA^ΔC (residues Met1–Ser574) (domain or fragment, UniProt Q96TA1 1-574)
chain: MGDVLSTHLDDARRQHIAEKTGKILTEFLQFYEDQYGVALFNSMRHEIEGTGLPQAQLLWRKVPLDERIVFSGNLFQHQEDSKKWRNRFSLVPHNYGLVLYENKAAYERQVPPRAVINSAGYKILTSVDQYLELIGNSLPGTTAKSGSAPILKCPTQFPLILWHPYARHYYFCMMTEAEQDKWQAVLQDCIRHCNNGIPEDSKVEGPAFTDAIRMYRQSKELYGTWEMLCGNEVQILSNLVMEELGPELKAELGPRLKGKPQERQRQWIQISDAVYHMVYEQAKARFEEVLSKVQQVQPAMQAVIRTDMDQIITSKEHLASKIRAFILPKAEVCVRNHVQPYIPSILEALMVPTSQGFTEVRDVFFKEVTDMNLNVINEGGIDKLGEYMEKLSRLAYHPLKMQSCYEKMESLRLDGLQQRFDVSSTSVFKQRAQIHMREQMDNAVYTFETLLHQELGKGPTKEELCKSIQRVLERVLKKYDYDSSSVRKRFFREALLQISIPFLLKKLAPTCKSELPRFQELIFEDFARFILVENTYEEVVLQTVMKDILQAVKEAAVQRKHNLYRDSMVMHNS
binding (HA-tagged Keap1): no binding

Other lines, results leading:

binding [2]: binds
B2: N-terminal trypsin fragment of MINERVA^ΔC (approximately 14 kDa, Gly2–Lys145) (domain or fragment, UniProt Q96TA1 2-145)
chain: GDVLSTHLDDARRQHIAEKTGKILTEFLQFYEDQYGVALFNSMRHEIEGTGLPQAQLLWRKVPLDERIVFSGNLFQHQEDSKKWRNRFSLVPHNYGLVLYENKAAYERQVPPRAVINSAGYKILTSVDQYLELIGNSLPGTTAK

binding [3]: no binding (tested: 2 mg injected)
B4: MINERVA^ΔC (C-terminally truncated human MINERVA, residues Met1–Ser574), recombinant with C-terminal His6-tag (domain or fragment, UniProt Q96TA1 1-574)
chain: MGDVLSTHLDDARRQHIAEKTGKILTEFLQFYEDQYGVALFNSMRHEIEGTGLPQAQLLWRKVPLDERIVFSGNLFQHQEDSKKWRNRFSLVPHNYGLVLYENKAAYERQVPPRAVINSAGYKILTSVDQYLELIGNSLPGTTAKSGSAPILKCPTQFPLILWHPYARHYYFCMMTEAEQDKWQAVLQDCIRHCNNGIPEDSKVEGPAFTDAIRMYRQSKELYGTWEMLCGNEVQILSNLVMEELGPELKAELGPRLKGKPQERQRQWIQISDAVYHMVYEQAKARFEEVLSKVQQVQPAMQAVIRTDMDQIITSKEHLASKIRAFILPKAEVCVRNHVQPYIPSILEALMVPTSQGFTEVRDVFFKEVTDMNLNVINEGGIDKLGEYMEKLSRLAYHPLKMQSCYEKMESLRLDGLQQRFDVSSTSVFKQRAQIHMREQMDNAVYTFETLLHQELGKGPTKEELCKSIQRVLERVLKKYDYDSSSVRKRFFREALLQISIPFLLKKLAPTCKSELPRFQELIFEDFARFILVENTYEEVVLQTVMKDILQAVKEAAVQRKHNLYRDSMVMHNS
